The supplement of paper PMC10681739
± gives the standard deviation of the averaged measurements. Whole data set: some 4,000 sequences, median “arbitrary fluorescence units” near 830, cut for the highest 2% near 6,500. The list lacks most of the strong results.

Target: RUNX1 (UniProt Q01196)
Experiment: RUNX1 binding intensity (PBM fluorescence), RUNX1 alone (arbitrary fluorescence units); higher = stronger binding
Conditions: RUNX1 concentration 2 nM; ETS1 concentration 0 nM
Experimental: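 gcPBM on 36-bp genomic-derived probes (partner site mutated) containing one RUNX1 site and no ETS1 site. Recombinant human RUNX1 (2 nM) was incubated alone or with ETS1 (25 nM) and detected by anti-RUNX1 antibody fluorescence. Values are medians over 4 replicate spots (not normalised). The probes sit in constant array flanks that are not printed.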
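Also: Full-length recombinant human RUNX1 bound to double-stranded DNA microarray spots, detected with an Alexa488-labelled secondary antibody after the anti-RUNX1 primary, read as scanned spot fluorescence.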

Sequence of UniProt Q01196 (Q01196 whole entry): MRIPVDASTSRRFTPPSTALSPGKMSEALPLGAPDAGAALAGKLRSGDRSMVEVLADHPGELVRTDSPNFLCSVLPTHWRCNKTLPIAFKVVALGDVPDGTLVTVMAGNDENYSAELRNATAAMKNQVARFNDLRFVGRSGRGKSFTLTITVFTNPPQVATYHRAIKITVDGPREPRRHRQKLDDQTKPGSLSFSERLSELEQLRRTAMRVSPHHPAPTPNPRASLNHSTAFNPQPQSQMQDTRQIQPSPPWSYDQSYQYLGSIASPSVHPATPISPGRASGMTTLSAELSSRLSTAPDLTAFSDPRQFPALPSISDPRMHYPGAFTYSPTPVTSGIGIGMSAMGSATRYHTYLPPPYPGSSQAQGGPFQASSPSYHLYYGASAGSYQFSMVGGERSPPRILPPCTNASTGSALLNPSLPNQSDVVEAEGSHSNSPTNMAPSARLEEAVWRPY

| Sequence | RUNX1 binding intensity |
| --- | --- |
| ACAGCAAATGACTTAGGGAAAGTCCCAACCGCAATC | 1530 |
| CCACTGCCTGAAGGGGAACTGTGGGGGTGCGCGAGT | 805 |
| CCGGGACCGTTCCACTTCACCTCCCACCCACAGGTT | 1180 |
| AGCTGTTTGTGGTTGTCACACCTAGTTGCCTCTGTC | 1460 |
| GGGCCCACACCCGGCGCGCGCAACCGCAGCCTACTG | 1880 |
| CCCGCTGTCACTTGCTGCTTCCCTCCCGCACACGTG | 1170 |
| GTAGCCGATCTCCGATTGCCCGCCGCAGCTCCACCA | 919 |
| CCAGGAGCGTTGCGGCCGCGGCTTCGTCCTACGGCG | 849 |
| AGGAGGTGGTCAGGCGGAGGCCAGCATGTGTGCAAA | 818 |
| GAGCGGGAGCAGCCAAGGCGGGCCCTCCCGCAGGCC | 686 |
| CGGAGAGCTCGCGGTAATTCCGTCTCCCCGCCCTTT | 823 |
| GACAAGCCATGTGGTTGCTGGCAGGCAATCTCAGTC | 1430 |
| CTAAAGGCAGGGACCACAAACACTTGCTGTTTGTGT | 714 |
| GGACTCTGGCAGGGAGCTGTTTGTGGTTGTCACACC | 1020 |
| TCTCTTCAATGTGGTCCCCATCCAGCCACACCATCT | 1200 |
| GAAGGAAAGTGGTTTTCATAGGATGGGAAGGGCGAA | 811 |
| CTCTTGCGCTCAGTCATCCTCAGAGGTGGTAAGACT | 858 |
| TATATGTGGCTTCTTATTGTGACTTACACTGCCTCA | 878 |
| CAACTGAACGGACAGAACACAGCCACAAAACACGAG | 866 ± 53 |
| GCAACATGAAGGACCAAGTCCCCTCCCGCAATTTTA | 936 |
| CCGCCGACACACTTTCGGCGGCCACCACAGGGTATT | 834 |
| GCTCCCCGCAGCCAGCAGAGAAGGCCGAAGCAGTGG | 825 |
| CTGACAGTTACTTGCTGTCTTTGTGGGCGATTGTGA | 769 |
| TGGGATTCTCACCTCCGATCAGCGGTCCTGAACCCG | 646 |
| TCAAGAAAACAGTAAACTCTCAAAACCAAGTTCTGA | 736 |
| CTAAGTGCTCTTCATGCCAACCTGTGGGCGCCTGGC | 655 |
| CCAACCGCAGCGCTACTCCCGGCCGCTTGCGCCTGG | 3670 |

| Sequence | RUNX1 binding intensity |
| --- | --- |
| CTGGGGAGGTGTGACACTCAGAGAAACCACAAGGTG | 1100 |
| TGGCCTCTGCGGCCCTGGCCTTGACTGCCTTTCCTC | 765 |
| TTTTCAACCGCCTTCCCTTCAGGCCTCCTTGTTTTT | 1940 |
| GGCTCCCTCGCGACCACCACGACTTGCCTCGTCCCT | 1140 |
| CAGAAGGTGGTTACGTACTAATCTCCTCTAGGGCTT | 847 |
| AGCTCCCCTCCCCTGAAACTTGACCACCTAGCCCAG | 796 |
| CTTGGCAGTTCGGTCCACTTCAGCCGCAGCGTCCCT | 795 |
| CCAGAGGGCGGCAGTGGGAGCTGCGACCGCGCTCCC | 772 |
| TGCTGCCCAGCACCGCAAGGACACGGAGGCCCCGCC | 834 |
| CTGAAACATGAAGCTGAGGGTGCGGTTGGGGGAGGA | 847 |
| TGTAGTTTGGCGGTTTGGGGGAGGTGTTTGTTTTGT | 933 |
| TGCAAAAAAACAGTAAACACCCAGCCGCAAATTATA | 933 |
| ACCAGCATGTAGTTTAGCTTAGGGGTGGTTATATCG | 727 |
| ATTGCTCCCGACGCTACTCCTGCCGGGTCACCACAG | 896 |
| GACGCTGCGGTAGCGCTGCTCCTTGCGCCTCCGGCT | 984 |
| CAGCAGTAAGCCACAGAGGAAAACAGGCAGTGATAC | 813 |
| GAAGCACCCACAGCCCTACCAGCCTCCGTAGAGAGA | 1030 |
| ACCTTCCTTGCTGCCTCCCTTGTGGCTCCAGTCCAC | 1310 |
| TTCGCCCTTCCCATCCTATGAAAACCACTTTCCTTC | 1580 |
| AAAAGGCACCAGGCAATGACAGCACCGCAGCACGCC | 857 |
| GCGATGTTGCCGAGGCAACGCGCTGGTGTGGGTTAG | 705 |
| TCCTTTTTCGGTGGCGGCGCCGCGCGGTGAGGTTGT | 797 |
| CTGCGGTGATGAGGCGAAAGGGATCCCTGAAAAGCC | 724 |
| ATCAGCCTGACCATATGTTTCTTTAGGCCACAAAAC | 825 |
| GTCCACTGCGGCTTCAAAATCCGAATGCGCCGGTAT | 849 |
| TCCACAATTCCCAAGGGTCTCTGCGGCTGCGCGGAG | 790 |
| AGGGTGTGGAGGAGGTGGCTTACAACCACTTTGTCT | 748 |

| Sequence | RUNX1 binding intensity |
| --- | --- |
| GGGGCAGTGGTCACAGGAGGATCTTGCTGGAGTCAT | 697 |
| CCAGCCTCAACCGCCCTCACTTGCGCTGACCCGCCC | 1250 |
| AAGCACCACATCGGCAGCTCATGCACTCCCGGCGCA | 763 |
| TTCGCGCCCACCCGCATCGCCAGTTTTCAGGCGCCA | 751 |
| AGAGGCTCCCTGAGGAACTGGTGTGGTCAGGGGAGC | 719 |
| CTGTGAGGTTGTGGTACTGGAAACTCCCTCCTAAAT | 964 |
| CTCAGACCCGCAGTGAGGTCTGACGTCATTTGCTGC | 728 |
| ATAAAGGACGTACAGTATTTAGAGAACAGTGGTTAA | 761 |
| TTCTTGTTTCATGTCAAGGGAGGCTCTGACCACCTC | 861 |
| GAGACAGGCAATGTAGACTTGAGTCCTGTGGTAAAC | 683 |
| GGGGCTGTGCTTCAGGCTGTTTGTGCGGTTTTGTGC | 1510 |
| AGGTTTGTGGGTTCACTCTGGTATTTATTGCCTCTT | 1160 |
| ACAGAAGCGGTCACGTGCCTTGGCGCGCTCCCGCTC | 735 |
| GGTTCTGTGGGAGTAGAGAGTGAGGCAATGAGTCAT | 678 |
| ACCCAGGGGACTTGCTGGCTCAGTGCCACAACCCAG | 826 |
| AAGTGAAGAGCTTCGGCCGGGAGACCGCGGCTGCAG | 689 |
| AGCCGTGGTCAGCAGCAGCACGACTGCCGCCTCCGC | 770 |
| AGCCACACCACAGGGTTGTCACAGCAAATATGTGGC | 744 |
| GGCGGGACTTTCGGCGTCTCCCCTCGGCGGTTGCTT | 815 |
| CTCTTGCTGCCTGTCCGTGGCTGGTGTGGTTTGCGT | 873 |
| CAGACCAGCCCAGGCAACAAGGAACCACAAAGCCAC | 971 |
| GATGCAGTGTGGTTTAACGGTTGCCTGACTTTGAAG | 1110 ± 110 |
| TGGTGGTTTGGTGCTTTGGTGGCAGCATGAAGGTAA | 853 |
| TGCCCTGACTGCCTGGTCCTGTGGTCAAGGATGGGG | 871 |
| CTCCATCTCCCACAAGCCCTCCTTCACTTTCGGCTC | 1750 |
| CTAACAGCAGCAAGTGCTTGGTGGTTTAGCACCTCA | 698 |
